± gives the standard deviation of the averaged measurements. Laboratory Escherichia coli strains with one amino-acid change in an essential protein, pooled on minimal glucose agar with carbenicillin or gentamicin at twice the control MIC (plus kanamycin and chloramphenicol for the plasmids), 48 h. Fold change of barcode share against drug-free plates; higher = less susceptible. Active = above 20 in both replicates (the paper's putatively resistant). '<' = one read or none on drug, '>' = one read or none on a drug-free plate. Shares are relative, so most strains fall below 1 when a few take over. Listed are strains with at least 15 reads on both drug-free plates, and hits; most hits rest on fewer reference reads. Replicate rank correlation about 0.5. Edits are read from barcodes.
B1: metE V481A (protein)
chain: MTILNHTLGFPRVGLRRELKKAQESYWAGNSTREELLAVGRELRARHWDQQKQAGIDLLPVGDFAWYDHVLTTSLLLGNVPARHQNKDGSVDIDTLFRIGRGRAPTGEPAAAAEMTKWFNTNYHYMVPEFVKGQQFKLTWTQLLDEVDEALALGHKVKPVLLGPVTWLWLGKVKGEQFDRLSLLNDILPVYQQVLAELAKRGIEWVQIDEPALVLELPQAWLDAYKPAYDALQGQVKLLLTTYFEGVTPNLDTITALPVQGLHVDLVHGKDDVAELHKRLPSDWLLSAGLINGRNVWRADLTEKYAQIKDIVGKRDLWVASSCSLLHSPIDLSVETRLDAEVKSWFAFALQKCHELALLRDALNSGDTAALAEWSAPIQARRHSTRVHNPAVEKRLAAITAQDSQRANVYEVRAEAQRARFKLPAWPTTTIGSFPQTTEIRTLRLDFKKGNLDANNYRTGIAEHIKQAIVEQERLGLDVLAHGEAERNDMVEYFGEHLDGFVFTQNGWVQSYGSRCVKPPIVIGDISRPAPITVEWAKYAQSLTDKPVKGMLTGPVTILCWSFPREDVSRETIAKQIALALRDEVADLEAAGIGIIQIDEPALREGLPLRRSDWDAYLQWGVEAFRINAAVAKDDTQIHTHMCYCEFNDIMDSIAALDADVITIETSRSDMELLESFEEFDYPNEIGPGVYDIHSPNVPSVEWIEALLKKAAKRIPAERLWVNPDCGLKTRGWPETRAALANMVQAAQNLRRG
B2: metE V481W (protein)
chain: MTILNHTLGFPRVGLRRELKKAQESYWAGNSTREELLAVGRELRARHWDQQKQAGIDLLPVGDFAWYDHVLTTSLLLGNVPARHQNKDGSVDIDTLFRIGRGRAPTGEPAAAAEMTKWFNTNYHYMVPEFVKGQQFKLTWTQLLDEVDEALALGHKVKPVLLGPVTWLWLGKVKGEQFDRLSLLNDILPVYQQVLAELAKRGIEWVQIDEPALVLELPQAWLDAYKPAYDALQGQVKLLLTTYFEGVTPNLDTITALPVQGLHVDLVHGKDDVAELHKRLPSDWLLSAGLINGRNVWRADLTEKYAQIKDIVGKRDLWVASSCSLLHSPIDLSVETRLDAEVKSWFAFALQKCHELALLRDALNSGDTAALAEWSAPIQARRHSTRVHNPAVEKRLAAITAQDSQRANVYEVRAEAQRARFKLPAWPTTTIGSFPQTTEIRTLRLDFKKGNLDANNYRTGIAEHIKQAIVEQERLGLDVLWHGEAERNDMVEYFGEHLDGFVFTQNGWVQSYGSRCVKPPIVIGDISRPAPITVEWAKYAQSLTDKPVKGMLTGPVTILCWSFPREDVSRETIAKQIALALRDEVADLEAAGIGIIQIDEPALREGLPLRRSDWDAYLQWGVEAFRINAAVAKDDTQIHTHMCYCEFNDIMDSIAALDADVITIETSRSDMELLESFEEFDYPNEIGPGVYDIHSPNVPSVEWIEALLKKAAKRIPAERLWVNPDCGLKTRGWPETRAALANMVQAAQNLRRG
B3: metE V481Q (protein)
chain: MTILNHTLGFPRVGLRRELKKAQESYWAGNSTREELLAVGRELRARHWDQQKQAGIDLLPVGDFAWYDHVLTTSLLLGNVPARHQNKDGSVDIDTLFRIGRGRAPTGEPAAAAEMTKWFNTNYHYMVPEFVKGQQFKLTWTQLLDEVDEALALGHKVKPVLLGPVTWLWLGKVKGEQFDRLSLLNDILPVYQQVLAELAKRGIEWVQIDEPALVLELPQAWLDAYKPAYDALQGQVKLLLTTYFEGVTPNLDTITALPVQGLHVDLVHGKDDVAELHKRLPSDWLLSAGLINGRNVWRADLTEKYAQIKDIVGKRDLWVASSCSLLHSPIDLSVETRLDAEVKSWFAFALQKCHELALLRDALNSGDTAALAEWSAPIQARRHSTRVHNPAVEKRLAAITAQDSQRANVYEVRAEAQRARFKLPAWPTTTIGSFPQTTEIRTLRLDFKKGNLDANNYRTGIAEHIKQAIVEQERLGLDVLQHGEAERNDMVEYFGEHLDGFVFTQNGWVQSYGSRCVKPPIVIGDISRPAPITVEWAKYAQSLTDKPVKGMLTGPVTILCWSFPREDVSRETIAKQIALALRDEVADLEAAGIGIIQIDEPALREGLPLRRSDWDAYLQWGVEAFRINAAVAKDDTQIHTHMCYCEFNDIMDSIAALDADVITIETSRSDMELLESFEEFDYPNEIGPGVYDIHSPNVPSVEWIEALLKKAAKRIPAERLWVNPDCGLKTRGWPETRAALANMVQAAQNLRRG
B4: metE V481D (protein)
chain: MTILNHTLGFPRVGLRRELKKAQESYWAGNSTREELLAVGRELRARHWDQQKQAGIDLLPVGDFAWYDHVLTTSLLLGNVPARHQNKDGSVDIDTLFRIGRGRAPTGEPAAAAEMTKWFNTNYHYMVPEFVKGQQFKLTWTQLLDEVDEALALGHKVKPVLLGPVTWLWLGKVKGEQFDRLSLLNDILPVYQQVLAELAKRGIEWVQIDEPALVLELPQAWLDAYKPAYDALQGQVKLLLTTYFEGVTPNLDTITALPVQGLHVDLVHGKDDVAELHKRLPSDWLLSAGLINGRNVWRADLTEKYAQIKDIVGKRDLWVASSCSLLHSPIDLSVETRLDAEVKSWFAFALQKCHELALLRDALNSGDTAALAEWSAPIQARRHSTRVHNPAVEKRLAAITAQDSQRANVYEVRAEAQRARFKLPAWPTTTIGSFPQTTEIRTLRLDFKKGNLDANNYRTGIAEHIKQAIVEQERLGLDVLDHGEAERNDMVEYFGEHLDGFVFTQNGWVQSYGSRCVKPPIVIGDISRPAPITVEWAKYAQSLTDKPVKGMLTGPVTILCWSFPREDVSRETIAKQIALALRDEVADLEAAGIGIIQIDEPALREGLPLRRSDWDAYLQWGVEAFRINAAVAKDDTQIHTHMCYCEFNDIMDSIAALDADVITIETSRSDMELLESFEEFDYPNEIGPGVYDIHSPNVPSVEWIEALLKKAAKRIPAERLWVNPDCGLKTRGWPETRAALANMVQAAQNLRRG

target: Escherichia coli (laboratory strain); experiment: barcode share on antibiotic plates over drug-free plates; higher = less susceptible; details: antibiotic: carbenicillin; 2× MIC (3.1 µg/mL)
Protocol: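 A pool of E. coli strains, each edited to carry one amino-acid change in an essential protein, was grown for 48 h on minimal glucose agar with or without antibiotic; strain barcodes were sequenced; mean of two replicates.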

Protein | fold change of barcode share
B1 | 1.92 ± 1.3
B2 | 0.46 ± 0.092
B3 | 0.71 ± 0.11
B4 | 0.532 ± 0.19

same assay, conditions: antibiotic: gentamicin; 2× MIC (MIC 0.45 µg/mL)

Protein | fold change of barcode share
B1 | 0.011 ± 0.0008
B2 | 0.0277 ± 0.0032
B3 | 0.014 ± 0.011
B4 | 0.0102 ± 0.0045
